This experiment has as its system NCI-H322M lung. The experiment can be described thus: inhibition of tumour cell growth, NCI panel, 48 h.

Experimental findings from PubChem BioAssay (NCI) are described below.

The structures appear in SMILES notation. Where “and” joins values, the source holds several entries; their conditions need not be identical. Equal values may be shown once.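 Dose response: 5 concentrations. Exposure: 48 h. Format: 96-well plates. Endpoint: linear interpolation; highest concentration if not reached. Abbreviation: GI50, concentration required for 50% inhibition of growth. At the TGI there is no net growth.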 Peptide text beside a SMILES is read from it. * marks the point of attachment. Pentanoyl = CCCCC(=O)*; Boc = CC(C)(C)OC(=O)* Some results are limits rather than exact numbers.

In the case of `CN(C)CCOc1ccc(/C(=C(/CCCl)c2ccccc2)c2ccccc2)cc1`, the GI50 was 1.72 µM; the TGI is 5.06 µM and 30.4 µM.
In turn, `O=C1C(Cl)=C(N2C(=O)CCCC2=O)C(=O)c2ccccc21` returned a TGI of more than 100 µM.
`O=c1cc(N2CCNCC2)oc2c(-c3ccccc3)cccc12`: the GI50 is 24.8 µM and the TGI is more than 100 µM.
Consider `O=C(Nc1ccc(CN2CCOCC2)cc1)c1[nH]ncc1Nc1ncnc2sccc12`, for which the GI50 is 0.331 µM and the TGI came to 4.32 µM.
As to `O=C1CCCC/C1=C1\C(=O)Nc2cc(F)ccc21`, the TGI is more than 100 µM.
For `O=C(Nc1ccc(Cl)cc1F)c1cc(I)ccc1O`, the GI50 is 0.993 µM and the TGI turned out to be 18.7 µM.
On to `Oc1c2c(c3c4c1N=CC=4CCN=3)-c1c(Br)cc(Br)cc1CCN2`, for which the TGI is 2.89 µM.
The same measure, in the same setting: to `COC(=O)C1=C(C(=O)OC)C23CC1C1C(C(=O)OC)=C(C(=O)OC)C12C1C=CC3C2C(=O)OC(=O)C21` (stereo not drawn) belongs more than 100 µM; to `CCCCOC(=O)NC(Nc1ccc(S(=O)(=O)Nc2ccc(OC)nn2)cc1)(C(F)(F)F)C(F)(F)F`, more than 100 µM.
Take `CC[C@H](Nc1nc(N)nc(C)c1C#N)c1nc2cccc(NCc3ccc(C(=O)NO)cc3)c2c(=O)n1-c1ccccc1`: the GI50 is 2.17 µM and the TGI worked out at 9.75 µM.
Compound `O=c1cccccc1NCCCCCCNc1cccccc1=O` returned a TGI of more than 100 µM.
In turn, `COc1ccc(/C=C2\N=C3Sc4c(nc[nH]c4=O)N3C2=O)cc1` returned a TGI of more than 100 µM.
`C/C1=C/C2=CC(C)C[C@@H]2C(=O)[C@]2(C)C(=O)CC(C)(C)[C@H]2CC1=O` (stereo partly drawn) returned a TGI of more than 50 µM.
The same measure, in the same setting: to `CCOC(=O)CC1(O)CCCCC1(Sc1ccc(C)cc1)Sc1ccc(C)cc1` (stereo not drawn) belongs more than 100 µM.
As to `O=C(O)c1cc2cc(c1)N=Cc1ccccc1OCc1cccc(n1)COc1ccccc1C=N2`, the TGI was more than 25 µM.
Take `COc1ccc(-c2nn(-c3cccc(NC(=O)c4ccc5c(c4)OCCO5)c3)cc2-c2ccncc2)cc1Cl`: the GI50 was 5.29 µM and the TGI was found to be 59 µM.
On to `O=C1c2ccccc2C(=Cc2ccccc2)c2ccccc21`, for which the GI50 was 4.33 µM and the TGI was determined as 19 µM.
The like results for `CCOC(=O)c1c2c(n(Cc3ccccc3)c1C)-c1ccccc1C(=O)C2=O` were, in that order, 17 µM and 35.7 µM.
Turning to `CCOC(=O)/C=C/c1cc2cc(-c3csc4ccccc34)ccc2[nH]1`, the GI50 is 10.4 µM and the TGI is 22.4 µM.
For `Cc1cnc(/C=N\NC(N)=S)c2cccc(N)c12` the same measures were 4.77 µM and more than 100 µM.
As to `CO/N=C(/C(=O)N(C(=O)/C(=N/OC)c1csc(NC(c2ccccc2)(c2ccccc2)c2ccccc2)n1)n1cnn(CC(=O)OC(C)(C)C)c1=O)c1csc(NC(c2ccccc2)(c2ccccc2)c2ccccc2)n1`, the TGI is more than 10 µM.
The compound `Cc1cc(=O)[nH]o1` came in with a TGI of more than 100 µM.
Turning to `O=C(Nc1cccc(Oc2nnc(Cl)c3ccccc23)c1)Nc1ccc(Cl)c(C(F)(F)F)c1`, the GI50 is 1.91 µM and the TGI was found to be 5.62 µM.
For `Cc1cc(C2=NNC(=O)Cc3cc4c(cc32)OCCO4)cc(C)c1N` the same measures were 4.74 µM and more than 100 µM.
The compound `Cc1ccc(C)c(NC(=O)NCc2ccc(Cl)cc2)c1` yielded a TGI of more than 100 µM.
The same measure, in the same setting: to `COC(=O)[C@]12CSC[C@H]1C[C@H](c1ccccc1OC)N2` belongs more than 100 µM.
As for `COC(=O)c1ccc(NC(=O)Nc2ccc3oc(=O)c4ccccc4c3c2)cc1`, the GI50 is more than 100 µM and the TGI was more than 100 µM.
For `C=CC(C=O)C1(O)CCOC(=O)/C1=C\N` (stereo not drawn), the GI50 is more than 100 µM and the TGI is more than 100 µM.
`CN(C)c1nc2n(CCO)c(-c3ccccc3)c(-c3ccccc3)nc-2c(=O)n1` gave a TGI of more than 100 µM.
Same read-out and setting: as for `N#Cc1c(NCCc2ccc(F)cc2)c2ccccc2n2c1nc1ccccc12`, the figure is more than 100 µM; as for `O=c1oc2ccccc2c(O)c1C1c2c(c3ccccc3oc2=O)Oc2c1c(=O)oc1ccccc21`, more than 100 µM.
On the same count and under the same terms, to `CC(=O)OC[C@@H]1[C@H]2CC[C@]3(C)[C@@H](OC(C)=O)CC[C@H]3[C@@H]2CC[C@H]1C1(C)SCCS1` belongs more than 25 µM; to `N=c1nc2n(cc1F)[C@@H]1O[C@H](CO)[C@@H](O)[C@@H]1O2`, more than 100 µM; to `O=c1[nH]c(=O)n(C2OC(CO)C(O)C2O)c2ccsc12` (stereo not drawn), more than 100 µM.
Same read-out and setting: as for `CN(C)c1ccc(/C=C2\N=C(c3ccc([N+](=O)[O-])cc3)OC2=O)cc1`, the figure is more than 100 µM; as for `O=C1/C(=C/c2ccc(Cl)cc2)N=C(c2ccccc2)N1c1nc2ccccc2s1`, more than 100 µM.
On to `CO/N=C(\C)c1cccc(Nc2cc(-c3ccccc3)nc3c(O)cccc23)c1`, for which the GI50 is 10.1 µM and the TGI amounted to 34.5 µM.
`CCCCCCCCOC(CO)CO` showed a TGI of more than 100 µM.
In the case of `COC(=O)[C@]12CC[C@@H](C)[C@H](C)[C@@H]1C1=CC[C@@H]3[C@@]4(C)C(C=O)=C[C@@](C)(COC(=O)c5ccco5)[C@@H]4C(=O)C[C@@]3(C)[C@]1(C)CC2`, the GI50 is 14.1 µM and the TGI is more than 100 µM.
For `COc1cnc2c(c1)C(=O)c1c-2n(CCCN2CCC(O)CC2)c(=O)c2cc(F)ccc12` the same measures were 0.387 µM and 4.39 µM.
On to `COCc1cc2c(cc1/C(=C/[N+](=O)[O-])CS(=O)(=O)c1ccccc1)OCO2`, for which the TGI was more than 100 µM.
For the compound `Nc1nncc2c1ccn2C1OC(CO)C(O)C1O` (stereo not drawn), the TGI was more than 100 µM.
Same read-out and setting: to `COc1cc(C=C2N=C(c3ccccc3)N(n3c(-c4ccccc4)nc4ccccc4c3=O)C2=O)cc(OC)c1OC` belongs 44.3 µM.
Same read-out and setting: to `Cc1c(C(=O)C/C(=N/NC(=O)C[n+]2ccccc2)C(=O)Nc2ccccc2)[n+](=O)c2ccccc2n1O` belongs more than 100 µM; to `Cc1nc2ccccc2c(=O)n1NC(=O)c1ccc([N+](=O)[O-])cc1`, more than 100 µM; to `Cc1cccc2c(N)c3cccc(C(=O)NCC[N+](C)(C)Cc4sccc4[N+](=O)[O-])c3nc12`, 92.6 µM.
The same measure, in the same setting: to `O=c1oc2nc(-c3ccccc3)cc(C(F)(F)F)c2n1Cc1ccccc1` belongs more than 100 µM; to `CN(Cc1cnc2nc(N)nc(N)c2n1)c1ccc(C(=O)NCS(=O)(=O)O)cc1`, more than 100 µM.
As to `CCOC(=O)[C@H]1Nc2c(cccc2[N+](=O)[O-])[C@H]2OCC[C@@H]12`, the TGI is more than 100 µM.
Same read-out and setting: to `COc1ccc(N=Nc2c(-c3ccccc3)nn(C(=O)CC(=O)Nc3cccc(Cl)c3)c2-c2ccccc2)cc1` belongs more than 100 µM.
The same measure, in the same setting: to `CC(=O)OC(C)c1cc2c(s1)C(=O)c1scc(C(C)OC(C)=O)c1C2=O` (stereo not drawn) belongs 3.61 µM.
Consider `COc1ccc(C2=NN(C(=O)c3cc(OC)c(OC)c(OC)c3)C(c3ccc(Cl)cc3)C2)cc1OC` (stereo not drawn), for which the GI50 was 18.1 µM and the TGI was more than 100 µM.
For `C/C(=N\N=C(\[Se])N1CCN(c2ccccn2)CC1)c1ccccn1` the same measures were 0.0057 µM and 16.4 µM.
Take `COc1ccc(OC)c(C23CCCC(C2)N(C)CC3)c1` (stereo not drawn): the TGI is more than 100 µM.
Compound `C1=Nc2sc3c(c2C2=NCCN12)CCCC3` displayed a TGI of 33.1 µM.
The same measure, in the same setting: as for `O=C(O)NCc1ccccc1` (tested in a mixture with another compound), the figure is more than 100 µM.
On to `Oc1ccc(O)c(-c2cc(-c3ccccc3)nn2-c2ccccc2)c1`, for which the GI50 was 13.1 µM and the TGI was 38.1 µM.
The compound `Cc1cnc(-c2c[nH]c3ccccc23)nc1-c1c[nH]c2ccccc12` yielded a TGI of 25.3 µM.
Consider `CCCC[N+](CCCC)=c1ccc2nc3c(C)cc(N(CC)CC)cc3sc-2c1`, for which the GI50 is 0.547 µM and the TGI was determined as 4.8 µM.
`O=C(O)CCC(=O)c1ccc2ccc3cccc4ccc1c2c34` yielded a TGI of more than 100 µM.
Consider `CNC(=O)c1ccc2cc(C3(O)CCn4cncc43)ccc2c1` (stereo not drawn), for which the GI50 is more than 100 µM and the TGI was more than 100 µM.
As for `O=C(O)c1ccccc1CC1Cc2ccc3c(c2C1=O)CCC3` (stereo not drawn), the TGI was more than 100 µM.
Same read-out and setting: to `CCC1(CCSC(=N)N)C(=O)NC(=O)NC1=O` belongs more than 100 µM.
Same read-out and setting: as for `C=C(C)C1CC2(C)C(C)CC(OC(=O)/C(C)=C\C)CC2C(OC(=O)/C(C)=C\C)C1O` (stereo not drawn), the figure is more than 100 µM.
On the same count and under the same terms, as for `O1C2C1C1OC1C1OC1C1OC21` (stereo not drawn), the figure is more than 100 µM; as for `COc1cc(/C=C/C(=O)OCCc2ccccc2)ccc1O`, 30.5 µM.
With `O=C(CF)N(O)c1ccc(/C=C/c2ccccc2)cc1`, the GI50 is 6.38 µM and the TGI is more than 100 µM.
In turn, `O=c1c2ccccc2n2n1CC(O)C2` (stereo not drawn) returned a TGI of more than 100 µM.
Same read-out and setting: to `CCCc1c[nH]c(-c2ccc(-c3cc(CCC)c(C=O)[nH]3)s2)c1` belongs 29.7 µM.
As for `COc1ccc2c(c1)C(=O)C(=O)c1cc(O)c(OC)c(OC)c1-2`, the GI50 was 3.09 µM; the TGI is 14.8 µM and 11.7 µM.
On to `O=C([O][Hg][CH2]C1COC([CH2][Hg][O]C(=O)c2ccccc2)CO1)c1ccccc1` (stereo not drawn), for which the GI50 was 17.2 µM and 19 µM; the TGI is 31.1 µM and 35.8 µM.
In the case of `C=CC[P+](c1ccccc1)(c1ccccc1)c1ccccc1`, the GI50 is 24.7 µM and the TGI is more than 100 µM.
Regarding `COc1ccc2c3c(n(Cc4ccccc4)c(=O)c2c1)-c1cc(OC)c(OC)cc1C3C` (stereo not drawn), the TGI was more than 100 µM.
The same measure, in the same setting: to `CCCCC(=O)Oc1ccc(CC(NC(=O)OC(C)(C)C)C(=O)NC(C)C(=O)NC(Cc2ccccc2)C(=O)NCC(N)=O)cc1` (stereo not drawn) (Boc-Y(Pentanoyl)AFG-NH2; configuration not given here) belongs 42.6 µM.
Still for that read-out and setting: to `C=CC(C)(O)/C=C/C=C(\C)C(CC1OC1(C)C)OC(=O)/C(C)=C\C` (stereo not drawn) belongs more than 100 µM; to `COc1cc(-c2cc(=O)c3c(O)c(OC)c(OC)c(OC)c3o2)ccc1O`, more than 100 µM.
The same measure, in the same setting: to `Cc1c(-c2nnc(-c3ccc(Cl)cc3)o2)c(=O)n(-c2ccccc2)n1C` belongs more than 100 µM; to `CCN(CC)CCCNc1nc(=O)[nH]c(C)c1C(=O)Nc1c2ccccc2nc2ccccc12`, 81.4 µM; to `COc1ccc2c(c1)c1c(n2CCN(C)C)-c2cccc(OC)c2CC1`, 29.9 µM.
On to `CCCCCC(=O)Nc1nc[nH]c1C(N)=O`, for which the TGI was more than 100 µM.
In the case of `Cn1c(O)c(C(/C=C/c2ccccc2)=NCCN=C(/C=C/c2ccccc2)c2c(O)n(C)c(=O)n(C)c2=O)c(=O)n(C)c1=O`, the GI50 is 16.5 µM and the TGI is more than 50 µM.
